# Data reported in ChEMBL document CHEMBL4888484, “Replenishing the malaria drug discovery pipeline: Screening and hit evaluation of the MMV Hit Generation Library 1 (HGL1) against asexual blood stage Plasmodium falciparum ,using a nano luciferase reporter read-out” (2022).
# Hit rate of the full screen: of about 150,000 compounds, about 540 (0.36%) showed an effect of 50% or more. This is one part of the list.
# Test system: Plasmodium falciparum
# Assay: Primary screen in NF54 nanoGlo assay, in single point, at 2uM, 72h; a lower Z score goes with more inhibition
# Format: functional, Erythrocyte
# Settings: timepoint 72 hour
SMILES,% Inhibition [%],Z score
CCC[C@H]1CCc2c([nH]c3ccccc3c2=O)O1,-7,0.98
O=C(O)c1ccn(-c2nc(-c3ccco3)cc(C(F)F)n2)n1,-27,3.13
Cn1cc(S(=O)(=O)N2CCCCC2)cc1C(=O)NCCc1ccc2[nH]ncc2c1,5,-0.61
O=C(NCC1CC1c1ccccc1)c1nccn2ccnc12 (stereo not drawn),-2,0.31
Cc1cc(C(F)(F)F)c(C#N)c(N)c1C#N,-15,1.92
COc1cn(CC(=O)NC2CCCC2)c(CN2CCOCC2)cc1=O,-8,0.84
CC(C)(C)CN1CCC[C@@](O)(CN2CCOCC2)C1=O,0,-0.07
CCN(C(=O)Nc1cc(C)ccc1F)C1CCOCC1,-9,1.03
O=C(Cc1ccccc1)Nc1c(-c2ccc3c(c2)OCO3)n[nH]c1C1CC1,2,-0.42
CNC(=O)c1ccccc1-c1cccc2ccsc12,5,-0.75
COC[C@H]1CCCN(c2ccnc(C(N)=O)c2)CC1,0,-0.06
CC(C)(C)OC(=O)N1CCCC(C2CCCCN2C(=O)CO)C1 (stereo not drawn),-8,0.83
CNc1cc([C@H]2C[C@@H](Nc3noc(C4CC4)n3)C2)nc(N)n1,1,-0.18
CCOc1cccc([C@H]2NC3(CCCC3)C(=O)N2C)c1O,-17,1.45
COc1cc(C(=O)NCCc2noc(C(C)C)n2)ccn1,10,-1.36
CC1C(c2ccccc2)NC(c2ccccc2)CC1(O)Cc1ccccc1Cl (stereo not drawn),-16,2.1
CCOc1ccc(NC(=O)N[C@H]2CN(C(C)C)C[C@@H]2OC)cc1C#N,-19,1.83
Cc1ccc(OC2CN(S(=O)(=O)N3CCCC3)C2)cc1,-7,1.06
CC(C)N(C)CC(O)CN[C@H](C)c1ccccc1Cl (stereo partly drawn),-10,1.28
CCn1cnnc1CC1CCN(S(=O)(=O)c2c(C)nn(C)c2C)CC1,-1,0.14
CCOC(=O)Nc1nn(CN2CCOc3ccc(OC)cc3C2)c(=S)s1,-7,1.15
COc1ccc(CC(=O)N2Cc3cncnc3C2)cc1,-11,1.93
COc1ccc(OC)c(NC(=O)Cn2c(C)cc(-c3nnc(C)o3)c2C)c1,-6,1.09
O=C(c1c[nH]nc1-c1ccccc1)N1CC[C@@]2(CCCN(CCc3ccccc3)C2)C1,-1,0.09
